Laboratory results from the supplement of paper PMC3334620.
In all, about 33,000 sequences were measured (“E-score (-0.5 to 0.5)”: median about -0.012, highest 2% from about 0.29 on). The list shows a part of the results.

Biological target: T1, Ybr033w (UniProt P38073)
T1 sequence: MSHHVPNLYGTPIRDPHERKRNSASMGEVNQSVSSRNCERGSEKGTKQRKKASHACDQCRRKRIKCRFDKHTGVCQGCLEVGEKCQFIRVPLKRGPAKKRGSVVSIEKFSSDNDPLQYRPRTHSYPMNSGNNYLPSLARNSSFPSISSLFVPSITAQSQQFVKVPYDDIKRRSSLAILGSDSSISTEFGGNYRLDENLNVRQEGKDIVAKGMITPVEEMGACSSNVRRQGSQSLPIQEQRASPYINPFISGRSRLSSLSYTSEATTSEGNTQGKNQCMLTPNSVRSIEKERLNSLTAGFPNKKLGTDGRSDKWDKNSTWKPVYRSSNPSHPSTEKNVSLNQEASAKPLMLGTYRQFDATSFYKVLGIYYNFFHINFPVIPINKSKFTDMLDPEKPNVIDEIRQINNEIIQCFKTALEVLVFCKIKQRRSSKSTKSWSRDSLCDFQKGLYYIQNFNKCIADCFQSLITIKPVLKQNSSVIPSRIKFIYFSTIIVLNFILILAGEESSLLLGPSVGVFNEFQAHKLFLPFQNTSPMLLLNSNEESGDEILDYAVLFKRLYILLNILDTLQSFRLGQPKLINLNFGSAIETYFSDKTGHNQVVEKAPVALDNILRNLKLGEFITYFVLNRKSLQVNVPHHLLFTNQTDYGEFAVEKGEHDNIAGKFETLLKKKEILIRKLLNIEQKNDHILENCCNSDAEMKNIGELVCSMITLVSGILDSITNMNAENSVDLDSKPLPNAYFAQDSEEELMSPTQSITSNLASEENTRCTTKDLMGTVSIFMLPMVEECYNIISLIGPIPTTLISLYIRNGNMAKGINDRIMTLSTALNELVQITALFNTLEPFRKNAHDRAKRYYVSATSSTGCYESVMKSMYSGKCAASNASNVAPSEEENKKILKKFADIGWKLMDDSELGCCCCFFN
Experiment: PBM E-score (8-mer binding enrichment) (E-score (-0.5 to 0.5)); higher = stronger / more preferred TF binding; most listed sequences are background and not binding sites
Conditions: protein concentration: 200 nM; construct: GST-full length
Summary of the method: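 Using PURExpress in vitro transcription/translation, GST-tagged yeast transcription factors were made in full-length or DNA-binding-domain form. These were applied at about 100-200 nM to double-stranded universal all-10-mer Agilent arrays, and bound protein was detected with fluorescent anti-GST. Scans were normalised with masliner before the Universal PBM Analysis Suite assigned E-scores to ungapped eight-base words pooled with their reverse complements.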

Sequence | PBM E-score
CCGCCACC | -0.132
ACTCTGCG | -0.162
CTAATCCA | 0.0428
CAGAACCG | -0.12
GAACTATC | 0.147
TAGCCCAA | -0.0431
GTGCACAC | -0.0293
CAACAAAC | 0.161
GACGCGAC | -0.2
GTTTTGTA | 0.0951
CTCTTGAC | -0.0753
CTCCCTTC | -0.3
AACGGGTC | -0.183
AGCAAGAT | 0.0879
TCTATTCA | 0.167
AGCGGTCA | -0.161
CATTCGGC | -0.156
GGCTGACA | 0.00838
CGTACATA | 0.201
TACTTCTA | 0.0401
AATACAGA | 0.108
ACGAGAGG | -0.025
AAGCCGAG | -0.0492
ACCCGACT | -0.0776
GCGAATCC | -0.184

Sequence | PBM E-score
GTATTACA | 0.161
CTGCGCGC | 0.0145
AACTATCA | 0.233
CGGTGCCA | -0.368
ACGGCCTA | -0.106
AAAGGTGG | 0.0832
TCCGCGCA | -0.0886
ACGATTAA | 0.141
ACTCAGAT | -0.0585
ACCTGAGC | -0.075
AGATGGCA | 0.0938
GTTCAGAA | 0.146
AATTACCG | 0.0913
AACATTCG | -0.0415
ACAGACCC | -0.161
TACCTGAA | 0.0791
AACAAGAA | 0.274
AGTGGATG | -0.127
AAAGCCCG | -0.162
CTCTAATC | 0.0958
CACGAGTC | -0.148
GACCGGAC | -0.259
CAGCGGAG | -0.26
ACCTTCGC | -0.0994
CAACAGCA | 0.155

Sequence | PBM E-score
AATCATAG | 0.219
ATATTGAA | 0.189
CAAACGAG | 0.103
CTAGTGAA | 0.101
ATCCCCAC | -0.069
ACCCAAAC | 0.138
ATGTCTTC | -0.213
CCAGGGAC | -0.282
GCTGATGA | 0.041
AGCTGCGA | -0.0753
GCCATTCA | -0.0625
ATTAAGGA | 0.177
ATTCTTTG | 0.151
ACGAAGCG | -0.261
CTTGCGCC | -0.154
CAGGTCCA | -0.149
CCGACTAC | -0.0899
ATCGACGA | 0.00669
CACCACTG | -0.0636
AGCGCCCT | -0.236
AAGAGGCC | -0.196
GTTCGTGA | -0.14
AGTACGTA | 0.166
CAAAGTGG | -0.194
GACCGACC | -0.241

Sequence | PBM E-score
GTGACCGA | -0.062
GGTAGACC | -0.153
CCACTTTC | 0.00792
AATCACCA | 0.295
AACTAAAT | 0.101
ACAGGCCC | -0.338
TACCAAAA | 0.145
CATTCTTC | 0.0876
GTAACGAC | -0.16
ATGGGCTG | -0.187
AGATACGA | 0.234
CACTAGCA | -0.0077
CAGGGACG | -0.148
CGAATGGC | 0.0852
TCGGCCAA | -0.136
TCGTGCCA | -0.139
TAGCTCCA | -0.0856
CGAACCGA | 0.0979
AGTGGCGG | 0.0136
CCCACTGC | 0.0387
GGCCACGA | -0.2
CAGCCCAA | -0.102
AGCGTGGG | -0.357
AGATTATG | 0.148
AATTAGCC | -0.00997

Sequence | PBM E-score
CACATGCG | -0.17
CCATCCCC | -0.192
ACATCATA | 0.187
AGAAAAAC | 0.0818
TCGTCACA | -0.0423
CTCTTAGA | 0.0706
ATTACGAG | 0.149
CCGGTCCC | -0.281
CAATGGAA | 0.203
ATAAATAA | 0.38
GTGAGCCA | 0.0735
ATAAGTAA | 0.225
CCTCTTCA | -0.218
CTTTACTA | 0.217
CCGTGAAA | 0.146
CGGGATCC | 0.00926
ACGGTTTG | -0.0111
GCCCCTGA | -0.264
AACTTGCA | 0.0768
CTCGCGAA | -0.0875
AAAGGAAG | 0.0309
GCCTGATA | -0.0639
GTACCTCA | -0.0236
CTAGGCAC | -0.0738
AACTCGCT | 0.0819

Sequence | PBM E-score
CAAATTTC | 0.225
TACGATAA | 0.151
AGCTCGCA | -0.134
GACCACTC | -0.232
AGCATCAT | 0.014
ACATACCG | -0.198
CGGATAGC | -0.0896
TCGCCCGA | -0.162
GATTTGAA | 0.177
CCGTCAAA | -0.0104
GAGAGCCC | -0.387
ACAGTCTG | -0.272
GAGCCAGA | 0.00187
GTGGAGGA | 0.0521
CTGACTGC | -0.188
GGAAATTA | 0.264
AGCTGGTA | -0.142
CTCAGTCA | -0.111
GACACGCC | -0.0989
ACATCGAT | 0.122
ATTAGAGC | 0.16
TACTCAGA | 0.0332
ACTAAGGA | -0.0971
ATTTCCTA | 0.101
TCAGCAAA | 0.126

Sequence | PBM E-score
ATCCGTCA | 0.105
AAGTTTCT | 0.133
ACGGGCGG | -0.259
GAGAGCGC | -0.203
CGCGACCG | -0.117
ACGCCTAT | -0.107
TCGACTCA | 0.168
CAAGCCGG | 0.0828
AAGCTTTC | 0.188
CTAGCAGC | -0.0711
CACTGTTC | -0.00287
TAAGTTCA | 0.0804
GCGAACGC | -0.131
CAGCTTGC | -0.186
GCAGTCTA | -0.0682
AGTTCGGG | 0.0706
GCATCGTA | 0.0304
CGCAGTAA | 0.0633
GAAATTAC | 0.255
GCAGCTAA | 0.0624
ATCTGCAG | -0.0436
GGTTAGTA | 0.125
